Records with an inconclusive call do not appear. The call rests on the fitted dose curve; in most records, active means well fitted curve in the direction sought with a large enough effect; inconclusive means small, poorly fitted or top-dose-only effect, or another doubt; inactive means no such curve, though single readings can be large; an effect the other way counts as inactive or inconclusive. The source holds more than one record for some entries. The list is limited to them. An entry can have further records. The records of an entry are repeats across runs, samples, wells, individuals or studies. Some compounds were tested as several samples or in several runs, with calls that do not always agree. A tag in brackets gives the origin of a value. The letters are not those of the source and start again with each entry.
Key:
[1] = qHTS of pediatric cancer cell lines to identify multiple opportunities for drug repurposing: Primary screen for SK-N-MC cells (AID 1347093); settings: SK-N-MC viability, CellTiter-Glo luminescence, 48 h; series mostly up to 46 µM
[2] = qHTS of pediatric cancer cell lines to identify multiple opportunities for drug repurposing: Primary screen for MG 63 (6-TG R) cells (AID 1347105); settings: MG 63 (6-TG R) viability, CellTiter-Glo, 48 h; series mostly up to 46 µM; further: nearly all actives have a fitted effect of over 50% in size
How it was run: (§1)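 Luminescence from CellTiter-Glo served as readout of metabolically active cells after 48 h compound exposure. Titrations: MIPE 11-point, from 0.78 nM; NPC 8-point, from 0.59 nM (final). Concentration-response curves came straight from the primary screen.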

[3] = qHTS of pediatric cancer cell lines to identify multiple opportunities for drug repurposing: Primary screen for DAOY cells (AID 1347090); settings: DAOY medulloblastoma viability, CellTiter-Glo luminescence, 48 h; series mostly up to 46 µM; further: nearly all actives have a fitted effect of over 55% in size
How it was run: (§2)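 Eight- or eleven-point concentration series, 48 h treatment at 37 degrees C in growth media; readout CellTiter-Glo luminescence. Potency and efficacy were taken from the concentration-response curves.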

[4] = qHTS of pediatric cancer cell lines to identify multiple opportunities for drug repurposing: Primary screen for SJ-GBM2 cells (AID 1347091); settings: SJ-GBM2 viability, CellTiter-Glo luminescence, 48 h; series mostly up to 46 µM
How it was run: as §2

[5] = qHTS of pediatric cancer cell lines to identify multiple opportunities for drug repurposing: Primary screen for LAN-5 cells (AID 1347100); settings: LAN-5 neuroblastoma viability, CellTiter-Glo luminescence, 48 h; series mostly up to 46 µM
How it was run: (§3)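 Cells (500-1,000/well) in growth media were settled 5 h at 37 degrees C, then given compounds for 48 h. Viability was read as CellTiter-Glo luminescence. Primary runs used MIPE at 11 points (0.78 nM-46 µM) and NPC at 8 points (0.59 nM-46 µM); follow-ups used 11 points.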

[6] = qHTS of pediatric cancer cell lines to identify multiple opportunities for drug repurposing: Primary screen for Rh18 cells (AID 1347102); settings: Rh18 rhabdomyosarcoma viability, CellTiter-Glo luminescence, 48 h; series mostly up to 46 µM; further: nearly all actives have a fitted effect of over 65% in size
How it was run: as §3

[7] = qHTS of pediatric cancer cell lines to identify multiple opportunities for drug repurposing: Primary screen for OHS-50 cells (AID 1347103); settings: OHS-50 osteosarcoma viability, CellTiter-Glo luminescence, 48 h; series mostly up to 57.3 µM; further: nearly all actives have a fitted effect of over 40% in size
How it was run: (§4)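 Cells (500-1,000/well) rested 5 h, then received compounds for 48 h; metabolically active cells were measured by CellTiter-Glo luminescence. Final concentrations spanned up to 46 µM (MIPE, 11-point) or 0.59 nM-46 µM (NPC, 8-point) in primary screens, 11-point in follow-ups.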

[8] = qHTS of pediatric cancer cell lines to identify multiple opportunities for drug repurposing: Primary screen for Rh30 cells (AID 1347107); settings: Rh30 rhabdomyosarcoma viability, CellTiter-Glo luminescence, 48 h; series mostly up to 46 µM; further: nearly all actives have a fitted effect of over 75% in size
How it was run: as §3

[9] = qHTS of pediatric cancer cell lines to identify multiple opportunities for drug repurposing: Primary screen for Rh41 cells (AID 1347108); settings: Rh41 rhabdomyosarcoma viability, CellTiter-Glo luminescence, 48 h; series mostly up to 46 µM; further: nearly all actives have a fitted effect of over 70% in size
How it was run: as §1

[10] = qHTS of pediatric cancer cell lines to identify multiple opportunities for drug repurposing: Primary screen for A673 cells (AID 1347092); settings: A673 Ewing sarcoma viability, CellTiter-Glo ATP luminescence, 48 h; series mostly up to 46 µM; further: nearly all actives have a fitted effect of over 45% in size
How it was run: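 Cell viability of A673 measured by CellTiter-Glo ATP luminescence after 48 hours compound exposure. Dilution series spanned 0.78 nM to 46 µM (MIPE, 11-point) or 0.59 nM to 46 µM (NPC, 8-point); bortezomib 2.3 uM positive control.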

[11] = qHTS of pediatric cancer cell lines to identify multiple opportunities for drug repurposing: Primary screen for NB1643 cells (AID 1347099); settings: NB1643 neuroblastoma viability, CellTiter-Glo luminescence, 48 h; series mostly up to 46 µM; further: nearly all actives have a fitted effect of over 50% in size
[12] = qHTS of pediatric cancer cell lines to identify multiple opportunities for drug repurposing: Primary screen for RD cells (AID 1347104); settings: RD rhabdomyosarcoma viability, CellTiter-Glo luminescence, 48 h; series mostly up to 46 µM; further: nearly all actives have a fitted effect of over 55% in size
How it was run: as §1

[13] = qHTS of pediatric cancer cell lines to identify multiple opportunities for drug repurposing: Primary screen for NB-EBc1 cells (AID 1347095); settings: NB-EBc1 neuroblastoma viability, CellTiter-Glo luminescence, 48 h; series mostly up to 46 µM
[14] = qHTS of pediatric cancer cell lines to identify multiple opportunities for drug repurposing: Primary screen for Saos-2 cells (AID 1347097); settings: Saos-2 viability, CellTiter-Glo ATP luminescence, 48 h; series mostly up to 46 µM; further: nearly all actives have a fitted effect of over 40% in size
How it was run: as §1

[15] = Primary qHTS for inhibitors of nuclear receptor binding SET domain protein 2 (NSD2) in an RCH-ACV wild type WT cells (2C) (AID 1645877); settings: RCH-ACV (leukaemia line) NSD2 WT (2C) viability, CellTiter-Glo, 72 h; further: nearly all actives have a fitted effect of over 70% in size
[16] = qHTS of pediatric cancer cell lines to identify multiple opportunities for drug repurposing: Primary screen for SK-N-SH cells (AID 1347098); settings: SK-N-SH viability, CellTiter-Glo luminescence, 48 h; series mostly up to 57 µM; further: nearly all actives have a fitted effect of over 65% in size
How it was run: as §4

[17] = qHTS of pediatric cancer cell lines to identify multiple opportunities for drug repurposing: Confirmatory screen for Rh30 cells (AID 1347126); settings: Rh30 rhabdomyosarcoma cell viability; series mostly up to 45.9 µM; further: nearly all actives have a fitted effect of over 55% in size
How it was run: as §3

[18] = qHTS of pediatric cancer cell lines to identify multiple opportunities for drug repurposing: Confirmatory screen for SK-N-SH cells (AID 1347129); settings: SK-N-SH neuroblastoma cell viability; series mostly up to 46.1 µM;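 further: cells exposed to compound for 48 h before viability read; nearly all actives have a fitted effect of over 60% in size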
How it was run: as §3
Potency means the concentration at half of the fitted maximal effect.

## c1ccc2[nH]c(-c3cscn3)nc2c1
[1]
  Potency: inactive [sample A] and active: 8.33 µM [sample B]
[2]
  Potency: inactive [sample A] and active: 14.8 µM [sample B]

## C=C(c1ccc(C(=O)O)cc1)c1cc2c(cc1C)C(C)(C)CCC2(C)C
[3]
  Potency: inactive [sample A] and active: 26.6 µM [sample B]

## CC(C)c1nc(CN(C)C(=O)N[C@H](C(=O)N[C@@H](Cc2ccccc2)C[C@H](O)[C@H](Cc2ccccc2)NC(=O)OCc2cncs2)C(C)C)cs1
[4]
  Potency: inactive [sample A] and active: 18.8 µM [sample B]
[5]
  Potency: active: 23.5 µM [sample A] and inactive [sample B]
[6]
  Potency: active: 23.5 µM [sample A] and inactive [sample B]
[7]
  Potency: active: 27.3 µM [sample A] and inactive [sample B]
[2]
  Potency: active: 23.5 µM [sample A] and inactive [sample B]
[8]
  Potency: active: 23.5 µM [sample A] and inactive [sample B]
[9]
  Potency: active: 20.9 µM [sample A] and inactive [sample B]

## CC1(C)CCC(C)(C)c2cc(NC(=O)c3ccc(C(=O)O)cc3)ccc21
[3]
  Potency: active: 18.7 µM [sample A] and inactive [sample B]
[10]
  Potency: active: 2.96 µM [sample A] and inactive [sample B]
[11]
  Potency: active: 11.8 µM [sample A] and inactive [sample B]

## O=C(NC(Cc1cc(=O)[nH]c2ccccc12)C(=O)O)c1ccc(Cl)cc1 (stereo not given)
[1]
  Potency: inactive [sample A] and active: 23.5 µM [sample B]
[11]
  Potency: inactive [sample A] and active: 9.35 µM [sample B]

## Clc1ccc(C(Cn2ccnc2)OCc2ccsc2Cl)c(Cl)c1 (stereo not given)
[12]
  Potency: inactive [sample A] and active: 37.2 µM [sample B]

## Cc1ccc(Nc2nccc(N(C)c3ccc4c(C)n(C)nc4c3)n2)cc1S(N)(=O)=O
[13]
  Potency: inactive [sample A] and active: 23.5 µM [sample B]
[14]
  Potency: inactive [sample A] and active: 16.6 µM [sample B]

## Cc1ccc(S(=O)(=O)NC(=O)NN2CC3CCCC3C2)cc1 (stereo not given)
[10]
  Potency: inactive [sample A] and active: 23.5 µM [sample B]
[5]
  Potency: inactive [sample A] and active: 23.5 µM [sample B]
[7]
  Potency: inactive [sample A] and active: 21.7 µM [sample B]
[12]
  Potency: inactive [sample A] and active: 33.2 µM [sample B]

## Cc1nc(Nc2ncc(C(=O)Nc3c(C)cccc3Cl)s2)cc(N2CCN(CCO)CC2)n1
[15]
  Potency: active: 2.7, 18.3, 58, 33.2 nM [separate samples]

## Cc1cc2cc3c(C)cc(=O)oc3c(C)c2o1
[3]
  Potency: inactive [sample A] and active: 23.5 µM [sample B]
[10]
  Potency: inactive [sample A] and active: 7.43 µM [sample B]
[1]
  Potency: inactive [sample A] and active: 10.5 µM [sample B]
[16]
  Potency: inactive [sample A] and active: 21.5 µM [sample B]
[11]
  Potency: inactive [sample A] and active: 10.5 µM [sample B]
[12]
  Potency: inactive [sample A] and active: 29.6 µM [sample B]
[9]
  Potency: inactive [sample A] and active: 18.7 µM [sample B]

## CN(c1nccc(=O)[nH]1)C1CCN(c2nc3ccccc3n2Cc2ccc(F)cc2)CC1
[11]
  Potency: active: 4.18 µM [sample A] and inactive [sample B]
[5]
  Potency: active: 14.8 µM [sample A] and inactive [sample B]

## COCCCN1CCC(NC(=O)c2cc(Cl)c(N)c3c2OCC3)CC1
[7]
  Potency: inactive [sample A] and active: 24.3 µM [sample B]

## CC[C@]1(O)C[C@H]2CN(CCc3c([nH]c4ccccc34)[C@@](C(=O)OC)(c3cc4c(cc3OC)N(C=O)[C@H]3[C@@](O)(C(=O)OC)[C@H](OC(C)=O)[C@]5(CC)C=CCN6CC[C@]43[C@@H]65)C2)C1
[17]
  Potency: active: 2.33 µM [sample A] and inactive [sample B]
[18]
  Potency: active: 16.6 nM [sample A] and inactive [sample B]

Source: PubChem BioAssay (NCATS)
